In the supplement of paper PMC12217912:
This is one part of the list. The full chains were built here from the parent and the listed change. Inactive controls read about 0.05.

B1: TEV protease; numbered along this chain (parent)
chain: MGESLFKGPRDYNPISSSICHLTNESDGHTTSLYGIGFGPFIITNKHLFRRNNGTLVVQSLHGVFKVKDTTTLQQHLVDGRDMIIIRMPKDFPPFPQKLKFREPQREERICLVTTNFQTKSMSSMVSDTSCTFPSGDGIFWKHWIQTKDGQCGSPLVSTRDGFIVGIHSASNFTNTNNYFTSVPKNFMELLTNQEAQQWVSGWRLNADSVLWGGHKVFMVKPEEPFQPVKEATQL

Variants of: B1
Assay: raw area under fraction-flipped curve 0-4 h after induction (AUC4h, not background-subtracted), DNA-recorder readout of cleavage of the substrate (dimensionless); higher = more cleavage of the substrate by the protease variant
Details: temperature: 34 °C; time window: 0-4 h after rhamnose induction
Description: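 In vivo DNA recorder in E. coli TOP10(DE3) ΔrhaA at 34 °C. Each TEVp single-site mutant (parent TEVp 0) is paired with a single-site variant of the 7-mer TEVs (canonical ENLYFQ|S). The substrate sits between flexible linkers in a Bxb1-sfGFP-TEVs-SsrA fusion, so cleavage stabilises Bxb1 and speeds flipping of a recombination array, read by NGS. The value is the raw area under the fraction-flipped curve over 0-4 h after rhamnose induction (AUC4h), with ≥20 reads per time point. It is not background-subtracted; inactive controls average about 0.047.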
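Further: Bxb1 expression induced with 0.2% (w/v) L-rhamnose at OD600 near 0.5, cultures sampled hourly, flipped fraction per protease–substrate barcode pair counted by paired-end Illumina sequencing.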

Variant | area with substrate ENLCFQS | area with substrate ENLDFQS | area with substrate ENLEFQS | area with substrate ENLFFQS | area with substrate ENLGFQS | area with substrate ENLIFQS | area with substrate ENLKFQS | area with substrate ENLPFQS | area with substrate ENLQFQS | area with substrate ENLSFQS | area with substrate ENLVFQS | area with substrate ENLAFQS | area with substrate ENLHFQS | area with substrate ENLMFQS | area with substrate ENLNFQS | area with substrate ENLRFQS | area with substrate ENLTFQS | area with substrate ENLWFQS | area with substrate ENLLFQS
T44S | 0.0616 | 0.0641 | 0.0973 | 0.0688 | 0.0675 | 0.063 | 0.0678 | 0.0661 | 0.0725 | 0.0676 | 0.0686 | – | – | – | – | – | – | – | –
R204L | 0.0711 | 0.0675 | 0.0609 | 0.0669 | – | – | 0.0703 | 0.0609 | 0.0629 | 0.0729 | – | 0.0646 | 0.0811 | 0.0597 | 0.0635 | 0.0635 | 0.05 | 0.0603 | –
M219S | – | 0.0636 | 0.0625 | 0.075 | – | 0.0709 | 0.0627 | 0.0604 | 0.0635 | 0.0611 | 0.0793 | 0.0545 | 0.068 | 0.0583 | 0.0674 | 0.0578 | 0.0527 | 0.0612 | 0.0594
E25W | 0.0528 | 0.0622 | 0.0643 | 0.0813 | – | 0.0791 | 0.085 | 0.0655 | – | 0.0631 | 0.0711 | – | 0.0704 | 0.0665 | 0.0552 | 0.0696 | – | 0.0837 | 0.074
I15K | 0.0753 | 0.0627 | – | 0.057 | 0.0646 | 0.0635 | 0.0538 | 0.0605 | 0.0566 | 0.0659 | 0.0567 | – | – | – | 0.0722 | 0.0755 | – | – | 0.0588
F226H | 0.0697 | 0.0664 | 0.0508 | 0.0935 | 0.107 | – | 0.0872 | 0.0329 | – | 0.0537 | – | 0.0648 | 0.0825 | 0.0719 | 0.0686 | 0.0779 | – | 0.078 | 0.0821
F226N | 0.0726 | 0.0649 | – | 0.0918 | – | – | 0.0745 | 0.0554 | 0.0727 | 0.0557 | 0.0927 | 0.0653 | – | – | 0.0733 | – | – | 0.0716 | 0.0733
K230N | – | 0.0691 | 0.0582 | 0.104 | – | – | 0.0756 | 0.0729 | 0.0726 | 0.0634 | 0.093 | 0.047 | 0.0708 | – | 0.0623 | 0.065 | – | 0.0627 | 0.0891
K221F | 0.0715 | 0.0636 | 0.0668 | 0.0767 | 0.0623 | 0.0715 | 0.0852 | 0.057 | 0.071 | 0.0648 | 0.0659 | 0.0783 | 0.0775 | 0.0821 | 0.0674 | 0.0808 | – | 0.0586 | 0.117
N45T | 0.0527 | 0.0521 | 0.0655 | 0.0516 | 0.068 | 0.0626 | 0.0593 | 0.0643 | 0.0494 | 0.0624 | 0.0506 | – | 0.0574 | 0.0628 | 0.0646 | 0.0625 | 0.0653 | 0.0059 | 0.066
E195K | 0.071 | 0.0656 | 0.0527 | 0.0774 | 0.0567 | 0.0767 | 0.101 | 0.0706 | – | 0.0612 | 0.0955 | 0.0681 | 0.0692 | 0.0676 | 0.07 | 0.0785 | – | – | 0.0545
W203G | 0.065 | 0.0611 | – | 0.0885 | 0.061 | 0.0409 | 0.0635 | – | 0.0505 | 0.0661 | 0.0677 | 0.0617 | – | 0.0497 | 0.07 | – | 0.0664 | 0.0558 | 0.05
